Experimental data published in the supplement of paper PMC11417369.
The list shows a part of the results.

tested on: PF3D7_0420300 AP2 domain 1 (GST-tagged); experiment: gcPBM binding intensity (ln(normalized median fluorescence intensity)); higher = stronger DNA binding
Outline: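 The highest Masliner-normalised natural-log median intensity across replicate spots of either probe orientation is reported as binding intensity. GST-tagged P. falciparum DNA-binding domains expressed in E. coli were applied for 1 h to an Agilent 4 × 180k array of primer-extended double-stranded 36-bp intergenic genomic probes plus negative controls, and bound protein was detected with Alexa488 anti-GST antibody and scanned at 488 nm.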

Sequence | gcPBM binding intensity (ln)
TATATACACATATATAAACACACAAAAAAAAAAAAA [CACACA_site8626] | 9.6
ATACAAATTGTTTAAAGTACAAATTACACCTCTTAA [XGTACX_site6888] | 9.12
CATACAGACATACATACACACATACATACAGACATA [CACACA_site6996] | 9.73
TGTAAATATATATATACACACACACCGAAGCAATAG [CACACA_site8960] | 10.1
TTTTTTTTTTTTTAAACATGCATATTAATATTATAT [TGCATGCA_site820] | 9
TAAAAAGGAAGACACACACACACATATATAAATATA [CACACA_site7657] | 10.2
GTATATCACACATTTGCATGTTGTCAATAGTTTATC [TGCATGCA_site134] | 9.43
GTGCAAAATATTTTTACACACAAATTCTTACAACAG [CACACA_site7556] | 9.38
ATATCTATGTTTATCTCGAATAACTTAAAAAATTAT [CACACA_negctrl_site1131] | 9
TCTTTCTAAAGATGTAGTACAAAATAAATATAATAT [XGTACX_site6564] | 9.19
TTTATACAAACAACTTTATATTAATGTTTAACGGAG [GTGCAC_negctrl_site396] | 9.02
AAGGCAAACAAACACACACACATATATACATATATA [CACACA_site2122] | 9.98
TTATCACACCTTTTTTGTACGAAATAAAAAAAAAAA [XGTACX_site5564] | 8.8
TAATATGCTCATGTAACACACATTTGCATATTTTTC [CACACA_site1357] | 9.39
GATATTATGTGTTTGGTATTTTTTGATGTTGGTAGG [XGTACX_negctrl_site563] | 9.56
TAGAACAAATAAAACACACACATATAAATATAGATG [CACACA_site7325] | 9.95
ATATATGACAAATGTAGTACAAATTATTGTATCATA [XGTACX_site3675] | 9.31
AGAATATTTAAAAAAGGTACACAAAAACCAAAATAA [XGTACX_site8569] | 9.56
TTATTGCATATTTACACACGTACTAATTTAAACAAG [CACACA_site971] | 9.45
ATAAATTCATATATGAGTACTAAAAATATCTTTTTC [XGTACX_site5541] | 9.09
TATTAATACAGACACACACACACACCCAATAAAATA [CACACA_site243] | 10.1
AAAAAAAACGAACACACACACATTCAATATAAAACA [CACACA_site6170] | 10.2
CAATGGTCATTTAGTTGTACTTAATTTTAAATCAAA [XGTACX_site4075] | 9.05

Sequence | gcPBM binding intensity (ln)
ATATGTATGAAGTGTACACATATATTGTATTTTCTT [CACACA_site5503] | 9.47
GTAAGCACACATAGTTGTACATTAATAAAAATAAAT [XGTACX_site5876] | 9.2
TTCCTATAAAAAAACACACACATATAAATATATATA [CACACA_site2318] | 9.74
AACAATTTATATAAAGCACACATGGGAAGGAAATAC [CACACA_site1712] | 9.85
TACAATTTAATATATACACACAAATAAATTATGCTT [CACACA_site856] | 9.41
AAAGGCTATCTTATATACTCCTAAAACGCGAACGTA [CACACA_negctrl_site396] | 8.83
AATATATAAATATTGTGTACTTATTTTTTTATATGT [XGTACX_site4377] | 9.37
ATAAATTCTATGTATACACACATATAAAATATAGAT [CACACA_site7296] | 9.42
ATTATATACATATATGCACACAAAAAAATATATATT [CACACA_site8508] | 9.56
TTAAAAATATTATGTACACACATTTGAGATATTTGT [CACACA_site6953] | 9.36
TTTTTTGTTATTAAAAGTACATTATATGCTAGTTAA [XGTACX_site8747] | 8.84
TGAAATAAAATTTATACACACTTGCTAAATGATCAT [CACACA_site4265] | 9.28
TATCATTAATTTACATGTACATAAATGAATGTTTAT [XGTACX_site5608] | 9.11
TTCGTAATTTATATCACACACATATATCTATAATAA [CACACA_site7458] | 9.59
ATATATTAAAACCTAGTGCATTTGTACATATTTCAA | 9.22
AGGTTAAAACATATATATATATATATATATATATAT [XGTACX_negctrl_site333] | 9
TTATACAGGACAATAGTGCACATAAATATATGTATA | 9.3
GCAGTCAAAAAGGAAAATATAAAAAAAGTATATGTG [GTGCAC_negctrl_site95] | 9.05
TATATATATATATACACACACACCGTCCGTGTTAAA [CACACA_site2979] | 9.66
GACTATTTTAATATTTTACACACCATGTAAAATATA [CACACA_site9050] | 9.39
ACATAATAAAAAAAACGTACAAATAGGTTTTTCATA [XGTACX_site6645] | 9.43
TTTTTTTATTATTAAAGTACTAAAAAATGAAAACTG [XGTACX_site6758] | 8.82
TGGGAATAAAAACACACACACACACCGATATATATA [CACACA_site5875] | 10.3

Sequence | gcPBM binding intensity (ln)
TATAATAAAAAATGTACACACATAAGAAAATTTAAT [CACACA_site2901] | 9.76
AAATAAATGTTATGCATACACACTTTATACCTATTT [CACACA_site3779] | 9.59
ATATATATTAGGTATTGTACTTATATGCATATAAGT [XGTACX_site2700] | 9.18
AATGAATGAATTATTTTGCGCTTATTATAGGACGAA [XGTACX_negctrl_site218] | 9.08
TCTTTTATGTTTGTTTTTCCCTTTTTTTATGTTCCC [CACACA_negctrl_site1722] | 9.5
CACAAAAAGAAACACACACACATATATATTTATTAT [CACACA_site3646] | 10.1
TATATATATATTTATACACACATTAGTGTATACATG [CACACA_site2950] | 9.39
AAGTAATTTATGCATACACACATATATAAATATGTA [CACACA_site7813] | 9.39
ATATATATAAAACACACACACACATGTTTTAAAACT [CACACA_site78] | 10.2
AAAAACTATTGTAGGACACACAAAATTCCAATTTTA [CACACA_site1701] | 9.41
AAAATGTTTTTATCCAGTACATAAATATATATATAT [XGTACX_site7398] | 9.15
TATGAACACCCAAATACACACACTCAAAAAAAAAAA [CACACA_site5466] | 9.71
TCAGATCCATAGAAGGTGCAAATAACAAAAATACAA [GTGCAC_site9610] | 9.43
TAATTTTTCTTATATAGTACACAAAAAGAAAATTAC [XGTACX_site6393] | 8.94
TTCCCTATATAGAGCATGCACTATATTCAAATGATG | 9.13
TTAGATATAAAAGCATGTACTTGTATAAAATATATA [XGTACX_site8272] | 9.16
TTATCAAATGAGTGTTGTACGTCTTTTGAAATACCA [XGTACX_site8804] | 8.98
GAAAAATTGAATTTGGGTACATATAAATATTATATT [XGTACX_site2363] | 9.16
ATAAATATTAGCAGTTGTACAATAAATATATGTAAT [XGTACX_site2534] | 9.4
TAAATACTTATATGTACACACATATAGATATATATT [CACACA_site2553] | 9.33
ATATAAATAAATGTATGTACATATATTTATATGCAT [XGTACX_site4185] | 9.19
CACAGACACGGACACACACACACACCGATATATATA [CACACA_site4353] | 10.3
ATTTTTTAAAATATTTGTACATATATAATGCATATA [XGTACX_site7026] | 9.03

Sequence | gcPBM binding intensity (ln)
ATATATATATATATATGTACATATATTTGTAATGTC [XGTACX_site8074] | 9.42
TTTATTATGTAAGCATGTACATGATGTATATATTTA [XGTACX_site5021] | 9.12
TATTTACAAATAAAAAGTACATAAACTAATATCTTT [XGTACX_site2181] | 9.19
ATCTGTACAGTTTTTGCACACATATAAATAAAAAAA [CACACA_site9198] | 9.43
TTGTTTGTAAACAGATGTACATATAAAAATATATAT [XGTACX_site3370] | 9.03
TATATTAGAAAGGATACACACATATATAAATATCTA [CACACA_site6411] | 9.65
TCAAAGTAAAACAGGACATGCACAGAACATCCTGCC [TGCATGCA_site2] | 9.38
AAAAAAAAAACATACACACACATATAGATTTATATG [CACACA_site6847] | 9.99
TACACAAAGTTACATACACACTAATATTTACACCAT [CACACA_site6602] | 9.59
TAAAGAAAAATATAAAGTACAAAAATAAAAAAAATA [XGTACX_site8226] | 9.4
GTATTTATGTGTTTGGTGCAAGGGAGAATTTTTTTT | 9.36
TTTTTTTTGTATTTTTCACACACACCGAAGTAAACA [CACACA_site8575] | 9.85
TAAAAGGATGCATATACACACATATAGATTTATATA [CACACA_site7336] | 9.47
ATATAATCTGAGTGCACACAAATAAATAAACATACA [CACACA_site422] | 9.76
TTTTTCCTTATTAATACACACATTCACCTTTTAAAT [CACACA_site479] | 9.53
AGTTGCATACATTGAAGTACAGAACATTTATATATA [XGTACX_site240] | 9.22
TTAAATTCGTCATTTTAAAATAATACAAAAGTTCAA [CACACA_negctrl_site19] | 8.83
ATTTATAAAATATAATTACATTTTTAAATAATAAAA [GTGCAC_negctrl_site43] | 8.8
TTACGATTTAAAATGGGTACATATATATGAAAAAAA [XGTACX_site545] | 9.14
CTTATGTGCATACCTACACACTTACCTATATTTATA [CACACA_site7411] | 9.6
